According to PMC4336329 (PLoS ONE, 2015):
In all, about 310,000 compounds went through this assay and about 2,200 (0.71%) showed an effect of 50% or more. Effects have a minus sign here. This is one part of the list.

The compounds below were run against human ether-à-go-go-related gene (hERG) potassium channel (human, UniProt Q12809) (assay: primary screen, population patch clamp on CHO cells stably expressing hERG).
Chain of human ether-à-go-go-related gene (hERG) potassium channel (Q12809 whole entry, looked up): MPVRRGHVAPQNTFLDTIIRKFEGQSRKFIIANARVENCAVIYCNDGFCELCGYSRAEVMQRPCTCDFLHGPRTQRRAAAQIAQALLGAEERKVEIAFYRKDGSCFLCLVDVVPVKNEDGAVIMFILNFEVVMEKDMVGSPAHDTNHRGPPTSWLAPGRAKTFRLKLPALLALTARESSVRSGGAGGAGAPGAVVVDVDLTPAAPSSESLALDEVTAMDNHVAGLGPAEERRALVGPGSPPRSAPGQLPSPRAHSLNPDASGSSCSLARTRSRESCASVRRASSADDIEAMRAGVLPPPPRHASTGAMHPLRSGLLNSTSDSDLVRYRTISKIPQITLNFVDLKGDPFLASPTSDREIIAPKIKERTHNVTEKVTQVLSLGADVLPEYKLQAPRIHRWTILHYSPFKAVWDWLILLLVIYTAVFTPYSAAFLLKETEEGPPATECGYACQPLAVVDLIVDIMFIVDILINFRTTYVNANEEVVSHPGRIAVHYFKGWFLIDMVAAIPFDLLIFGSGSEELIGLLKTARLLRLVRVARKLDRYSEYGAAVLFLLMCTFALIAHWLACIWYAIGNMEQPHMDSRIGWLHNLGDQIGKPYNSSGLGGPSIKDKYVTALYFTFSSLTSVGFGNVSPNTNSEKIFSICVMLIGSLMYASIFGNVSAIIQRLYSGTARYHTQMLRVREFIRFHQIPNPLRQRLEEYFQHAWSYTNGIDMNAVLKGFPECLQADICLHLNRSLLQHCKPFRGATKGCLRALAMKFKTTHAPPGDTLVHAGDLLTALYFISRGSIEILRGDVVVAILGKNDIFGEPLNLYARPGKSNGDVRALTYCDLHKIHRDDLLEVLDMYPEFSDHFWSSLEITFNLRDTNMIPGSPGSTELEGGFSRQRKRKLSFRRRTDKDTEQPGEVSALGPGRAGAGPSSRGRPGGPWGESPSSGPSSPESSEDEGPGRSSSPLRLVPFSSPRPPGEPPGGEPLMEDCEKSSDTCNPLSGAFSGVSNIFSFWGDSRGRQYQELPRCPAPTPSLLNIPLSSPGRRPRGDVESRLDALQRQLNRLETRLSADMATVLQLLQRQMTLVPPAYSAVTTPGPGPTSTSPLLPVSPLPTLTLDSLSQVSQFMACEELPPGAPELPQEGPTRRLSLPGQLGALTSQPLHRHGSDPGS

Compound | hERG current change (%, negative = inhibition) at 1uM [%]
CCc1cccc(CC)c1NC(=S)N1CCn2cccc2C1c1cccnc1 (stereo not shown) | 15.5
CC1CCN(C(=O)C2CCN(S(=O)(=O)c3cccs3)CC2)CC1 | 12.9
CC(=O)Nc1ccc(S(=O)(=O)Nc2cc(C)c(-n3nc4ccccc4n3)cc2O)cc1 | 1.25
CCC(=O)Nc1ccc(C(=O)CSc2nc3ccccc3cc2CC)cc1 | -1.39
O=C(Nc1ccc(S(=O)(=O)N2CCCCC2)cc1)c1ccncc1 | 2.75
COc1ccc(C)cc1NC(=O)COC(=O)c1c(C)noc1C | -1.51
N#Cc1cc(S(=O)(=O)c2ccc(Cl)cc2)c(N)[nH]c1=O | 3.56
COC(=O)[C@H](Cc1c[nH]c2ccccc12)NC(=O)Nc1ccccc1OC | 9.9
Cc1cc(C)cc(OCC(=O)N2N=C(c3cccnc3)CC2(O)C(F)(F)F)c1 (stereo not shown) | 1.73
COc1ccc(OC)c(-c2nc3ccccc3nc2-c2ccccc2)c1 | 10.2
COc1ccc(N(C)C(=O)Cn2c(=O)oc3ccccc32)c(OC)c1 | 3.65
Cc1[nH]n(-c2ncc(-c3ccc(Cl)cc3)s2)c(=O)c1C(c1ccc(Cl)cc1)C(C#N)C#N (stereo not shown) | -2.41
NC(=O)C1=C[C@@H](c2ccc(C(F)(F)F)cc2)C[C@@H](OCc2ccc(CO)cc2)O1 | 3.1
Cc1ccc(OCC(=O)NNC(=O)C(=O)NC(C)(C)C)cc1 | 4.19
CCOC(=O)N1CCN(C(=O)CCS(=O)(=O)c2ccc3c(c2)CC(C)N3C(=O)CC)CC1 (stereo not shown) | 9.44
O=C(CN1CCc2ccccc2C1)Nc1cccc(S(=O)(=O)N2CCCC2)c1 | 10.2
CN(C)c1ccc(C(CNC(=O)c2ccccc2)c2c[nH]c3ccccc23)cc1 (stereo not shown) | 3.71
Cc1ccc(S(=O)(=O)Oc2ccc(/C=C(/NC(=O)c3ccccc3)C(=O)O)cc2)cc1 | 15
CCOCCCNC(=O)C1CCN(C(=O)Nc2ccc(Cl)cc2)CC1 | -1.62
CCCCN1CC(O)=C(c2nc3ccccc3s2)C1=N | 15.2
COc1cccc(OC)c1-c1nn(-c2ncc(C(F)(F)F)cc2Cl)c(=O)o1 | 15.6
CCC1=NN2C(=N)/C(=C/c3c(C)nn(-c4ccccc4)c3Cl)C(=O)N=C2S1 | -5.19

Compound | hERG current change (%, negative = inhibition) at 1uM [%]
Cc1cc(C)cc(NC(=O)Nc2ccc(-n3ccc(C(F)(F)F)n3)cc2)c1 | 11.5
CCOc1ccc(C(=O)Nc2ccc3c(c2)OCCO3)cc1[N+](=O)[O-] | 9.7
COc1ccc(NC(=O)c2ccc3[nH]c(=O)c(=O)[nH]c3c2)c(OC)c1 | 11.3
Nc1nc(NC(=O)C(Cl)(Cl)Cl)nn1-c1ccccc1 | 18.4
Cc1cccc2c(C(=O)N3CCN(c4ccccn4)CC3)cc(-c3cccc(Br)c3)nc12 | 8.68
c1ccc(-c2cnn3nnnc3n2)cc1 | -0.158
CC(C)CCNC(=O)CN(Cc1ccco1)C(=O)c1snc(C(N)=O)c1N | 4.01
CC/C(C)=N/Nc1ccc(S(=O)(=O)N2CCCC2)cc1[N+](=O)[O-] | 8.37
Cc1ccc(C(=O)CSc2nc(C)cc(C)c2C(N)=O)cc1 | 0.19
COc1ccccc1NC(=O)CSc1nn2c(=O)c(C)nnc2s1 | 10.8
COc1ccccc1NC(=O)Cc1nnc(SCC(=O)Nc2ccc(F)cc2F)n1C | 12.4
N#Cc1cnc2ncnn2c1-c1ccccc1 | 14.7
Cc1c(NC(=O)c2ccco2)cccc1-c1nc2cccnc2s1 | -4.68
COCCn1c(CN2CC(C)CC(C)C2)nc2c1c(=O)n(C)c(=O)n2C (stereo not shown) | 3.09
CCN1CCN(c2nc3ccccc3nc2NS(=O)(=O)c2ccc(NC(C)=O)cc2)CC1 | 1.95
COCCCn1c(C(=O)Nc2ccc3c(c2)OCO3)cc2c(=O)n3ccccc3nc21 | 13.5
CCC(C)[C@H](NC(=O)N1CC(=O)Nc2ccccc21)C(=O)N[C@H](Cc1c[nH]c2ccccc12)C(=O)O (stereo partly shown) | 16.8
CCC(C)C12CN3CCN(CC(C)(C3)C1=O)C2 (stereo not shown) | 10.7
CC(=O)Nc1ccccc1NC(=O)c1cc(C)ccc1C | 14.6
O=C(Nc1ccccc1F)c1cc2c(s1)-c1ccccc1S(=O)(=O)C2 | 2.35
CCCCCCOc1cccc(N)c1 | 9.05
CCCc1cc(=O)oc2cc(OC3CCCCC3=O)ccc12 (stereo not shown) | 6.05

Compound | hERG current change (%, negative = inhibition) at 1uM [%]
CC1CCN(CC(=O)Nc2cccc(C(=O)Nc3cccc(C(F)(F)F)c3)c2)CC1 | -1.73
COc1cc(CNCc2ccco2)cc(OC)c1O.Cl | 18.4
Cc1cc(C)c(NC(=O)c2ccccc2C(=O)c2ccccc2)c(C)c1 | 13.9
COc1ccc(-c2nc(-c3cccs3)c(-c3cccs3)[nH]2)cc1OC | 20.3
CC(Cc1ccccc1)NC(=S)CN1CCCC1=S (stereo not shown) | 23
O=S(=O)(c1ccc(F)cc1)N1CCCN(Cc2c(F)cccc2F)CC1 | 9.03
CCOc1ccccc1C(=O)N[C@H](C(=O)OCc1cc(=O)oc2cc(C)ccc12)C(C)C | 2.83
CCc1ccccc1NC(=O)c1cnc2n(c1=O)CCS2 | 9.9
O=C(NCc1ccc(Cl)cc1)C1CCC(CNc2c(N3CCCC3)c(=O)c2=O)CC1 (stereo not shown) | 3.95
Cc1cccc(N/C=C(\[N+](=O)[O-])S(=O)(=O)c2ccccc2)c1C | 9.29
COc1ccc(/C=N/NC(=O)C(C)n2cnc3ccccc3c2=O)cc1OC (stereo not shown) | 0.713
CC(C)NC(=O)c1ccccc1NC(=O)C1CCCO1 (stereo not shown) | 2.68
C=CCc1ccc(OCCCOc2ccc(C)cc2OC)c(OC)c1 | 21.2
CCCOc1ccccc1NC(=O)c1c(-c2ccccc2)noc1C | 15.7
COc1ccc(Sc2ccc(NC(=O)c3ccccc3Cl)cc2C#N)cc1 | 8.52
Cc1ccc(O)c(CNc2ccccn2)c1 | 8.65
Cc1cccc(C(=O)c2c(N)sc3c2CCCC3)c1 | 8.52
CCCCc1c(O)nc(SCCN(C)C)n(-c2ccccc2)c1=O | 13
COc1ccc(CCN2CC(C#N)=C3c4cc(OC)c(OC)cc4CCN3C2)cc1OC | -12.9
Cc1cc(OC(=O)c2cc([N+](=O)[O-])ccc2Cl)c([N+](=O)[O-])c(=O)[nH]1 | 4.01
CCCCCCCC(=O)Nc1ccc(C(=O)N/N=C/c2cccc([N+](=O)[O-])c2)cc1 | 12.6
Cc1ccccc1/C=N/n1c(COc2ccccc2)n[nH]c1=S | 8.21

Compound | hERG current change (%, negative = inhibition) at 1uM [%]
O=C(Nc1ccccc1)C1=C(O)CC(c2ccc(Cl)cc2)N2CCN=C12 (stereo not shown) | -15.7
CCC(Oc1ccccc1)C(=O)Nc1ccccc1N1CCCC1 (stereo not shown) | 10.3
O=C(Nc1cc2c(oc1=O)CCCC2=O)c1cccc(Cl)c1 | 14.4
CCOC(=O)c1cc2c(=O)n3ccccc3nc2n(Cc2ccco2)c1=NC(=O)c1ccc(OC)cc1OC | -12.8
C=CCSc1nc(N)c(C#N)c(-c2ccccc2)c1C#N | 5.82
Cc1cc(C(=O)N2CCN(c3cc(Cl)ccc3C)CC2)on1 | -6.67
COC(=O)CCc1c(C)nc(N)[nH]c1=O | 13.4
Cc1cc(=O)[nH]c(SCC(=O)c2c(N)n(C)c(=O)n(C)c2=O)n1 | 10.5
CCc1nc(N2CCCCC2C(=O)O)c2oc3ccccc3c2n1 (stereo not shown) | 10.9
O=C(CN1CCCc2ccccc21)N/N=C/c1ccccc1 | 7.32
O=C1NC(=O)/C(=C/c2cccc3ccccc23)S1 | 15.1
CCCC(=O)N(Cc1cc2ccccc2[nH]c1=O)c1ccccc1OC | 17.6
COc1ccc(CCN(C(=O)c2snc(C(N)=O)c2N)C(C)C(=O)NC2CCCCC2)cc1OC (stereo not shown) | 14.2
O=C(Cn1c(-c2ccccc2)noc1=O)N1CCC(Cc2ccccc2)CC1 | -6.11
Cc1cc(C)n(-c2ccc(NC(=O)C3CCN(Cc4cnc(C)s4)CC3)cc2)n1 | -2.33
Cc1c(C(=O)Nc2cccc(S(=O)(=O)N3CCCC3)c2)oc2ccccc12 | 10.5
Cc1ncc(CO)c(/C=N/NC(=O)c2ccccc2Br)c1O | 14.9
C=CCn1c(N)c(C(=O)NCCC2=CCCCC2)sc1=S | 6.87
CC(C)c1ccc(OCc2nc(-c3ccccn3)no2)c(Br)c1 | 1.9
COCCn1c(SCC(=O)Nc2ccccc2OC)nc2ccccc21 | -1.43
CS(=O)(=O)N1CCN(C(=O)c2cc(-c3cccs3)nc3ccccc23)CC1 | -2.31
Cn1cc([N+](=O)[O-])c(C(=O)Nc2cc(Oc3cccnc3)cc([N+](=O)[O-])c2)n1 | 18.6
